# Hit rate of the full screen: of about 220,000 compounds, about 5,700 (2.6%) were called active. The inconclusive results got no clear call from the source; some entries with a clear call stand among them for comparison. Calls follow the shape of the dose curve; as a rule, active = well fitted inhibition curve with a large enough effect; inconclusive = small, poorly fitted or top-dose-only effect; inactive = no such curve, though single readings can be large or run the other way. Where the call is inconclusive, the potency comes from a doubtful curve fit.
# Target: Lysine-specific demethylase 5B (Homo sapiens) (UniProt Q9UGL1)
# Test: Primary screen for KDM5B Histone Demethylases FDH-coupled qHTS; also: nearly all actives have a fitted effect of over 70% in size; as to activity change, negative = inhibition: 0% is about no effect
# Settings: FDH-coupled NADH fluorescence (FDH is formaldehyde dehydrogenase); activity change, negative = inhibition: at 57.7 µM (top of the series) unless noted
# In short: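 Compound dilutions met 200 nM (final) KDM5BΔAP for 10 min at room temperature before substrate addition. The substrate mix held 12.5 µM H3K4me3 with cofactors 25 µM α-ketoglutarate and 50 µM Fe²⁺. NADH signal gain over 30 min defined activity.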
# Potency is read from the fitted curve at half-maximal effect; tags tell the direction and shape of the fitted curve.
# UniProt Q9UGL1, sequence (Q9UGL1 whole entry, looked up): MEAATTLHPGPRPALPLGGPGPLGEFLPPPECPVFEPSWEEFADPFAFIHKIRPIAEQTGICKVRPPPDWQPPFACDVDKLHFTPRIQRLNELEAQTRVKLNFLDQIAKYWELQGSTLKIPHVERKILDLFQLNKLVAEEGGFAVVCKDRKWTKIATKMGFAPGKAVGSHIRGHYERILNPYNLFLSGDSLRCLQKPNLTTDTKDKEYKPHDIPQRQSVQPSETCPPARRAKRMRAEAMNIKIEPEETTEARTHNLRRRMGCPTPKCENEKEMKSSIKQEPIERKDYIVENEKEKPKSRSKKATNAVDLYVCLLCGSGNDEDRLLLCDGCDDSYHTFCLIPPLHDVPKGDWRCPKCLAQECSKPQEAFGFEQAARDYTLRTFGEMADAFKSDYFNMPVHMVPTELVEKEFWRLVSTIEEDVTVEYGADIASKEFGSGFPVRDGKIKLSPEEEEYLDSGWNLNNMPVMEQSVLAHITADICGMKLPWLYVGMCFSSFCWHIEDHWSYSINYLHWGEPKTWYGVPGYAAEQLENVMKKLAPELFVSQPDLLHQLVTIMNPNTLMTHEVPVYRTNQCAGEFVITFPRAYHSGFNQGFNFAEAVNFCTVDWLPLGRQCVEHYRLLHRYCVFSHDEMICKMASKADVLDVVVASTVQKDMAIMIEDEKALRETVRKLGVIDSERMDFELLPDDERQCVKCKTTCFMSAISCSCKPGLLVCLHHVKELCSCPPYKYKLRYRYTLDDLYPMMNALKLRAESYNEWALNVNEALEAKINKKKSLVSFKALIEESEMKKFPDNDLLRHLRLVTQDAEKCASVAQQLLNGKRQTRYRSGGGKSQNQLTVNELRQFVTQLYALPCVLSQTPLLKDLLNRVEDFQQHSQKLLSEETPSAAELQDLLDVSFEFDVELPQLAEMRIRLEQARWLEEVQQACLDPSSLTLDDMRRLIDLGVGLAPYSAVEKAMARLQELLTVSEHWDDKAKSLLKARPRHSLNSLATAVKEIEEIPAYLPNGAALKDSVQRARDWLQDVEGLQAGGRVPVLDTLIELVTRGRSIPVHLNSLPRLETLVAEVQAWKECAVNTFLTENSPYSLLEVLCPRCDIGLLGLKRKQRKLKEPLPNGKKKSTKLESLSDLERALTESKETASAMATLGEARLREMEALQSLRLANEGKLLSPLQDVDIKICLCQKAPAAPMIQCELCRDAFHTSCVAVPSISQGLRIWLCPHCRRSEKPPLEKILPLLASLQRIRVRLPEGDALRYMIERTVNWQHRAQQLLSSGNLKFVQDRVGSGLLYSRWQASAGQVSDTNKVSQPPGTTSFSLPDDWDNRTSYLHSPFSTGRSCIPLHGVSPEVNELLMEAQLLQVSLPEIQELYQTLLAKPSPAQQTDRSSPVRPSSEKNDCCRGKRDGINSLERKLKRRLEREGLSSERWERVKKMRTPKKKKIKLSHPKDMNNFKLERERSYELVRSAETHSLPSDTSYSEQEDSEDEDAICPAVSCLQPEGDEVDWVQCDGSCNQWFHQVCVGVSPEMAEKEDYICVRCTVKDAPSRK
SMILES,Potency,"activity change, negative = inhibition"
Nc1nc(COC(=O)c2c(Cl)cccc2Cl)nc2ccccc12,"inconclusive: 39.8 µM [inhibitor, single point]",–
Cc1ccc(-c2cn3c(n2)sc2cc(C(=O)NCCCc4ccccc4)ccc23)cc1,"inconclusive: 31.6 µM [inhibitor, partial curve, poor fit]",–
Cc1ccc(C2Cn3nnc(-c4noc(-c5ccc(N(C)C)cc5)n4)c3CO2)cc1 (stereo not drawn),"inconclusive: 12.6 µM [inhibitor, partial curve, poor fit]",–
CCOc1ccc(-c2nc3c(C#N)c[nH]n3c2NC2CCCC2)cc1,"inconclusive: 17.8 µM [inhibitor, partial curve, poor fit]",–
Cc1ccc(C2=Nc3ccccc3NC(c3ccncc3)=N2)cc1,–,inactive: -16.6%
O=c1c2cc(Cl)ccc2nc(-c2ccc(Cl)c(Cl)c2)n1O,"inconclusive: 20 µM [inhibitor, partial curve, poor fit]",–
Cc1sc2nc(CSCC(=O)Nc3ccc(C(=O)N(C)C)cc3)[nH]c(=O)c2c1C,"inconclusive: 20 µM [inhibitor, single point]",–
O=C(OCc1nc2ccccc2o1)c1cc(S(=O)(=O)N2CCCCC2)ccc1Cl,–,inactive: 4.96%
O=C(Nc1ccc2c(N3CCCCC3)ncnc2c1)c1ccc(F)c(F)c1,"inconclusive: 28.2 µM [inhibitor, single point]",–
COc1ccc2[nH]c(CNc3cc(C4CC(N)C4)nc(C)n3)cc2c1 (stereo not drawn),active: 20 µM,–
CCOC(=O)C1(Cc2ccc(OC)cc2)CCN(C(=O)c2cccc(Cl)c2)CC1,"inconclusive: 35.5 µM [inhibitor, single point]",–
COc1ccccc1-c1ccc(C(=O)O)cc1,active: 112 µM,–
CCOC(=O)c1cnc(-n2nc(C)cc2C)[nH]c1=O,"inconclusive: 28.2 µM [inhibitor, partial curve, poor fit]",–
CN1CCN(C)c2cc(-c3ccc(N4CCOCC4)cc3)ncc2C1,active: 39.8 µM,–
COc1cc2oc(=O)c(CC(=O)N(C)C3CCS(=O)(=O)C3)c(C)c2cc1Cl (stereo not drawn),"inconclusive: 25.1 µM [inhibitor, partial curve, poor fit]",–
COc1cccc(-c2cc3c(=O)n(CCNC(=O)Cc4ccsc4)ccn3n2)c1,"inconclusive: 12.6 µM [inhibitor, partial curve, poor fit]",–
c1ccc(OCc2nnc3n2N=C(c2ccccc2)CS3)cc1,"inconclusive: 17.8 µM [inhibitor, partial curve, poor fit]",–
Cc1noc(-c2ccn3c(CNC(=O)c4cc(Cl)ccc4F)nnc3c2)n1,"inconclusive: 0.794 µM [inhibitor, full curve, poor fit]",–
COc1ccc(C(=O)Nc2nc(-c3ccc(Br)s3)ns2)cc1,–,inactive: -1.42%
CCn1nccc1C(=O)N[C@@H]1CN(Cc2ccccc2)C[C@H]1CN(C)C,–,inactive: -8.55%
COc1ccccc1NC(=O)Cn1c(=O)n(Cc2ccco2)c(=O)c2oc3ccccc3c21,"inconclusive: 15.8 µM [inhibitor, partial curve, poor fit]",–
COC(=O)C(C)Sc1nnc2cc(C)c3cc(C)cc(C)c3n12 (stereo not drawn),"inconclusive: 28.2 µM [inhibitor, single point]",–
C/C(=N/NC(=O)c1cccc(C)c1)c1ccc2ccccc2c1,"inconclusive: 39.8 µM [inhibitor, single point]",–

SMILES,Potency,"activity change, negative = inhibition"
COc1cc(-c2cc(OC)c3c(C)oc(C)c3c(=O)c2)ccc1OC(=O)c1ccccc1C,"inconclusive: 15.8 µM [inhibitor, partial curve, poor fit]",–
OCCOc1ccccc1CN1CCCC(N2CCN(c3ccccc3)CC2)C1 (stereo not drawn),–,inactive: 13.1%
Cc1ccc(C)c(NC(=O)C2CCN(c3cc(C(F)(F)F)ncn3)CC2)c1,"inconclusive: 28.2 µM [inhibitor, single point]",–
Cc1ccc(C2=NN(C(=O)Cn3nnc(-c4ccc(C(N)=O)cc4)n3)C(c3ccco3)C2)cc1 (stereo not drawn),–,inactive: -20%
Cc1ncsc1C(=O)NCc1ccc(N2CCCC2)nc1,–,inactive: -8.89%
C[C@@H](NC(=O)c1cccnc1)c1c(-c2ccc(F)cc2)noc1C(=O)O,"inconclusive: 28.2 µM [inhibitor, partial curve, poor fit]",–
CCCN(CCC)CCCNC(=O)Cn1cnc2onc(-c3ccc(F)cc3)c2c1=O,"inconclusive: 31.6 µM [inhibitor, single point]",–
Oc1ccc(-c2nc(C3CC3)nc3c2CCN(Cc2ccc(OC(F)(F)F)cc2)CC3)cc1,"inconclusive: 35.5 µM [inhibitor, single point]",–
O=C(Nc1nc2cc3c(cc2s1)OCCCO3)c1ccc(Br)cc1F,–,inactive: 4.51%
O=C(CCCn1c(=O)[nH]c2ccccc2c1=O)NCc1ccccc1Cl,"inconclusive: 25.1 µM [inhibitor, partial curve, poor fit]",–
c1cc(CNC[C@H]2Cn3cc(-c4ccc5c(c4)OCCCO5)nc3CO2)ccn1,–,inactive: -20.8% [at 86.2 µM]
Cc1ccc(C23CC4CC(CC(C(=O)Nc5ccc(Cl)c(Cl)c5)(C4)C2)C3)cc1,–,inactive: 30.7%
CS(=O)(=O)Cc1ccc(C(=O)NCc2ccc(F)cc2)cc1,–,inactive: 35.9%
O=C(O)CCNS(=O)(=O)c1ccc(C(=O)/C=C/c2ccccc2Cl)cc1,"inconclusive: 22.4 µM [inhibitor, partial curve, poor fit]",–
CCOc1ccc(CN2C[C@@H]3C(=O)N(CCN4CCc5ccccc5C4)C(=O)[C@@H]3C2)cc1,"inconclusive: 31.6 µM [inhibitor, single point]",–
COc1ccc(C2=C(C)C(N3CCC(C(=O)Nc4ccc(C)c(Cl)c4)CC3)=NS2(=O)=O)cc1,–,inactive: 9.48%
CCCS(=O)(=O)c1nc(S(=O)(=O)c2ccc(C)cc2)c(NCC)s1,–,inactive: 18.8%
CC(=O)Nc1cccc(NC(=O)C(=O)NCCc2csc(-c3ccc(C(F)(F)F)cc3)n2)c1,–,inactive: 3.24%
CCn1cnnc1CC1CCCNC1 (stereo not drawn),"inconclusive: 3.98 µM [inhibitor, full curve]",–
Fc1ccc2cnc(N3CCC(N[C@H]4C[C@@H]5OCC[C@H]45)CC3)nc2c1,active: 25.1 µM,–
O=c1c(NS(=O)(=O)Cc2ccccc2)ccc2n1C[C@H]1C[C@@H]2CN(S(=O)(=O)c2ccccc2)C1,"inconclusive: 28.2 µM [inhibitor, single point]",–
Cn1nc2n(c1=O)CCC(NS(=O)(=O)c1ccc3c(c1)OCCO3)CC2 (stereo not drawn),–,inactive: -30.1%
CC(=O)c1sc2nc(-c3ccco3)ccc2c1N,"inconclusive: 25.1 µM [inhibitor, partial curve, poor fit]",–

SMILES,Potency,"activity change, negative = inhibition"
O=C(NCCCc1ccccc1)C1(CCO)CCN(c2ncccn2)C1 (stereo not drawn),active: 25.1 µM,–
N#Cc1cc2ccccc2nc1N1CCCCC1,"inconclusive: 28.2 µM [inhibitor, single point]",–
CN1CCCCCC1C(=O)N1CCN(c2ccc(C#N)cn2)CC1 (stereo not drawn),active: 28.2 µM,–
N#Cc1ccc(C(=O)N2CCC(n3cc(-c4nc(C5CC5)no4)nn3)C2)cc1 (stereo not drawn),–,inactive: -20.6%
Cc1ncsc1CN1CCCCCCNC(=O)[C@@H]2CCC[C@@H]21,"inconclusive: 10 µM [inhibitor, partial curve]",–
O=C(CSc1nc(-c2ccccc2)cc(=O)[nH]1)Nc1oncc1-c1ccc(F)cc1,–,inactive: -0.145%
Nc1n[nH]c(CNc2cc(-c3ccc(F)cc3)nc3ccnn23)n1,active: 28.2 µM,–
COc1cccc(NC(=O)CSc2cc(=O)n(C)c3ccc(Cl)cc23)c1,"inconclusive: 15.8 µM [inhibitor, partial curve, poor fit]",–
COc1cccc(C(=O)Nc2ccc3c(c2)C(=O)N(CC2CCCO2)C3=O)c1 (stereo not drawn),"inconclusive: 28.2 µM [inhibitor, partial curve, poor fit]",–
CCOC(=O)N1CCc2c(sc(NCc3sccc3C)c2C(=O)Nc2cc(OC)ccc2OC)C1,"inconclusive: 25.1 µM [inhibitor, partial curve, poor fit]",–
COc1ccccc1CNC(=O)c1cc2c(N3CCCC3)nc(C)cn2n1,active: 28.2 µM,–
CCn1cc(-c2ccc(Cl)cc2)cc1C(=O)N1CCN(c2ccccn2)CC1,"inconclusive: 28.2 µM [inhibitor, single point]",–
CC1CCc2nc(/C(C#N)=C\c3ccco3)sc2C1 (stereo not drawn),"inconclusive: 31.6 µM [inhibitor, partial curve, poor fit]",–
CC(C(=O)NCc1ccccc1F)n1nc(-c2ccccc2)c2ccccc21 (stereo not drawn),"inconclusive: 28.2 µM [inhibitor, partial curve, poor fit]",–
O=C(CCCN1C(=O)C(c2ccccc2)Oc2cccnc21)NCCc1ccccc1 (stereo not drawn),–,inactive: -9.63%
Cc1nc2c(C(=O)NCc3ccccc3Cl)c[nH]n2c(=O)c1Cc1cccc(Cl)c1,"inconclusive: 8.91 µM [inhibitor, partial curve, poor fit]",–
CC(C)CC(N)c1ccccc1 (stereo not drawn),–,inactive: 19.1%
COc1cccc(C(=O)N2CCC(N3C[C@H](O)C[C@H]3C(=O)N3CCN(c4ncccn4)CC3)CC2)c1,"inconclusive: 20 µM [inhibitor, partial curve]",–
CC1CCN(C(=O)CCNc2c(-c3ccc(F)cc3)nc3cnccn23)CC1,active: 31.6 µM,–
COC(=O)c1ccc(NC(=O)CCc2c(C)nc3c(c(C)nn3-c3ccc(C)cc3)c2C)cc1,"inconclusive: 1.58 µM [inhibitor, full curve, poor fit]",–
Cc1cccc(NC(=O)c2oc3c(c2C)-c2[nH]ncc2CC3)c1C,"inconclusive: 2.24 µM [inhibitor, partial curve, poor fit]",–
CCOC(=O)C1CCN(c2c(C(=O)c3ccc(OCC)cc3)cnc3ccc(OC)cc23)CC1,"inconclusive: 17.8 µM [inhibitor, partial curve, poor fit]",–
